Laboratory results taken from PMC3297496.
No constants are given. Whether binding was seen depends on the method and setting. Some binding calls cover weakened binding; strength is not graded here. Tags and fused reporters may be left off the sequences shown.

What was measured:
[1] = biological target: T1, DOP-2IL-CII (DOP-2XL amino acids 124-849), split-ubiquitin bait in pBT3-SUC (C. elegans) (UniProt E7EM37); experiment: two-hybrid; split-ubiquitin pair-wise assay in yeast: DOP-2XL baits (full length in pBT3-STE, truncations in pBT3-SUC) with NubG preys (pPR3-N, pPR3-STE, pDL2-Alg5); growth on SD/-Ade-His-Leu-Trp with 1 mM 3-AT and X-gal filter assay
T1 sequence: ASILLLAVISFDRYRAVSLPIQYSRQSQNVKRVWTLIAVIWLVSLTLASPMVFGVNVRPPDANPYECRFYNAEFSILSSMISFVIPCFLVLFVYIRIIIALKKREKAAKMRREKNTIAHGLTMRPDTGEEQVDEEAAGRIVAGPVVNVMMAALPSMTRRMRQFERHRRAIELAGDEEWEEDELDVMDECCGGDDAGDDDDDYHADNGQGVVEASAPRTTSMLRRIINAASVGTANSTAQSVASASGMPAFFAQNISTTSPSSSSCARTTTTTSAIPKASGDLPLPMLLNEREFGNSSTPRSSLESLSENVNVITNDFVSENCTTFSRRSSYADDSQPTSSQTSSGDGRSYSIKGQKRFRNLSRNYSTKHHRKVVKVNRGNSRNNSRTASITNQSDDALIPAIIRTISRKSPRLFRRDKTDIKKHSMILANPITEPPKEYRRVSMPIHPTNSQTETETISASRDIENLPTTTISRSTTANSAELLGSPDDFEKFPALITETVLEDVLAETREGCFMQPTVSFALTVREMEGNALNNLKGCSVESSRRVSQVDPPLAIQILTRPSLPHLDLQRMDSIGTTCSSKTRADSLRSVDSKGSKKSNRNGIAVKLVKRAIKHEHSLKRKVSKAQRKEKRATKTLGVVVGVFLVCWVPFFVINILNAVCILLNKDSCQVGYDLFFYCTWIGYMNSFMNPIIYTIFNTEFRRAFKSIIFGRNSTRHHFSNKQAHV

[2] = biological target: T2, DOP-2IL-CI (DOP-2XL amino acids 64-849), split-ubiquitin bait in pBT3-SUC (C. elegans) (UniProt E7EM37); experiment: as above
T2 sequence: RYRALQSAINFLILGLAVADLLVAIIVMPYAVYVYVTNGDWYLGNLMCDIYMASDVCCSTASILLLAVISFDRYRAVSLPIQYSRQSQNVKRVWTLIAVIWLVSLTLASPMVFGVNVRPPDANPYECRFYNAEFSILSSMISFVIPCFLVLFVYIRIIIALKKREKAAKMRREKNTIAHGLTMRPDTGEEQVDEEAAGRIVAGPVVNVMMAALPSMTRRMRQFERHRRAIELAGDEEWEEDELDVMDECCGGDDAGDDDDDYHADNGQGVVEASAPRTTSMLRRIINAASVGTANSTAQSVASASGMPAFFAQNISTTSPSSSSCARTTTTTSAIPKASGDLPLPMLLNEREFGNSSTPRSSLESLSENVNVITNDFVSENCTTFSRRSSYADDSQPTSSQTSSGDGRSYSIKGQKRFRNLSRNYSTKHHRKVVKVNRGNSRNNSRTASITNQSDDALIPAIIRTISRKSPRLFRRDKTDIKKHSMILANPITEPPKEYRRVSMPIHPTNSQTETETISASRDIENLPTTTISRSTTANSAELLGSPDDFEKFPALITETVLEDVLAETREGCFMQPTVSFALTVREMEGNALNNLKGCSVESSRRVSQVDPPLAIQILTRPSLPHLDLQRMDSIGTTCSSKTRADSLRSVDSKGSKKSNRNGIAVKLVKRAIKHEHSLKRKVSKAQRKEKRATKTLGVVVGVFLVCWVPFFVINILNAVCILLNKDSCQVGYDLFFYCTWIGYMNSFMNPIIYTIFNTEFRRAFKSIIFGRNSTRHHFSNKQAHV

binding [1]: binds | binding [2]: binds
B1: GPA-14, split-ubiquitin prey in pPR3-N (NubG fusion) (protein, UniProt Q9BIG2 1-408)
chain: MAFSCFDKFSYTYCYQCMHGPDGCMVPSRNGEGTELYAHSEELEAKLRELARRGHMEIEKELALEKKTYGSHIKILILGGPLSGKSTIFKQMQIIHVDGFKTDQELIQYRGLIDNNIRDIYLQLIAGSRVVGIPLDPIEHITYEIDEIYAPMSDAFSVRTISELLEPLTEFWNSKQIQEIYKRRCEFELLDSTKYYLENLTRIADPTYLPNQEDIVHSRKATMSINSIVFEYTGVSLLMIDVGGQRSERKKWLHLFDDAKVVLFVIDLTGYAKRSEESRMELSRFPKFFRDVGSNAYDMKVALKIFNEVAAASALANAVFLLFFNKVDLFKEILSQVNLQPCFSKFDGENTYEETSKYICEKFIRAASSKKSVFPHFTTATNTENVKLVFRACMESVFKANAKATGLS
